Data as given in PubChem BioAssay AID1345083 (National Center for Advancing Translational Sciences (NCATS), 2018).
Among all 94,000 compounds or so, about 6,200 (6.6%) were called active. This list was built around the results that the source calls inconclusive (neither active nor inactive); the mix of calls is not that of the screen. Calls come from the whole dose curve; as a rule, active = well fitted inhibition curve with a large enough effect; inconclusive = small, poorly fitted or top-dose-only effect; inactive = flat fitted curve, though single readings scatter. A potency beside an inconclusive call is a rough fit, not a confirmed value.
Potency is the fitted concentration of half-maximal effect; tags give direction and shape of the fitted curve.

Test: Cytotoxic Profiling in HEK 293 Cell Line of Diverse Libraries Using Quantitative High-Throughput Screening; note: nearly all actives have a fitted effect of over 60% in size
Details: HEK 293 viability, ATP luminescence (CellTiter-Glo), 48-72 h; series mostly up to 115 µM
In short: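 Pintool-delivered compounds were incubated with HEK 293 cells (250 cells/well) at 37 degree Celsius for 48 or 72 hr. ATP-dependent luminescence (CellTiter-Glo) then reported remaining viable cells.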
For `O=C(O)C[C@@H]1CCN(S(=O)(=O)c2cccs2)C[C@@H]1CC1=NCCc2ccccc21`, the Potency was “inactive”.
For `COc1cccc(CN2CCC3(CC2)C(OC)CN3c2cccc(F)c2)n1` (centres undefined), the Potency was inconclusive: 50.1 µM [inhibitor, partial curve, poor fit].
For `CN1C[C@@H](NC(=O)c2ccc(C#N)cc2)C[C@H]1c1nc(-c2ccc(OC(F)(F)F)cc2)no1`, the Potency was active: 22.4 µM.
For `Cc1ccc(Cn2c(C3CCN(C(=O)c4ccc(C)c(C)c4)CC3)n[nH]c2=O)cc1`, the Potency was inconclusive: 50.1 µM [inhibitor, partial curve, poor fit].
In the case of `COc1ccc(C(CC(=O)N(C)Cc2cc(C3CC3)n[nH]2)c2ccccc2)cc1` (centres undefined), the Potency is reported as inconclusive: 50.1 µM [inhibitor, partial curve, poor fit].
For `Cn1ncc2c(C(=O)NCc3cccs3)cc(-c3ccc(Cl)cc3Cl)nc21`, the Potency was active: 39.8 µM.
In the case of `CC(C)Cc1cc(CNc2nccc(-c3cc(C(=O)O)ccn3)n2)no1`, the Potency is reported as “inactive”.
In the case of `O=C(O)c1ccnc(-c2ccnc(NCCN3CCCCC3=O)n2)c1`, the Potency is reported as “inactive”.
In the case of `O=C(c1ccco1)N1CCn2c(nnc2[C@@H]2C[C@@H](O)CN2Cc2ccccc2)C1`, the Potency is reported as “inactive”.
For `COc1ccc(CN2CCC3(CC2)OCCN(Cc2ccccc2F)C3=O)cc1O`, the Potency was inconclusive: 100 µM [inhibitor, partial curve, poor fit].
In the case of `COC[C@@H]1CN(Cc2c(OC)cccc2OC)C[C@H]1c1ccncc1`, the Potency is reported as active: 35.5 µM.
With `COc1ccc(CN2Cc3[nH]nc(-c4ccccc4)c3CC2=O)cc1` the Potency was “inactive”.
With `COc1cccc(-c2ccc(CN3CCCC(N[S+](C)(=O)[O-])C3)cc2)c1` (centres undefined) the Potency was inconclusive: 39.8 µM [inhibitor, partial curve, poor fit].
In the case of `COc1ccc(CN2CCOc3nc(-c4cccc(C#N)c4)ncc3C2=O)cc1`, the Potency is reported as active: 100 µM.
With `O=C1CCC2(CCNCC2)CCN1Cc1ccccc1` the Potency was “inactive”.
In the case of `COc1ccc(/C=C/c2ccc3c(c2)C(=O)N2C[C@@H](NS(C)(=O)=O)C[C@H]2C(=O)N3)cc1`, the Potency is reported as inconclusive: 89.1 µM [inhibitor, single point].
With `COCCNC(=O)c1ccc(OC2CCN(Cc3ccc(C)s3)CC2)c(Cl)c1` the Potency was inconclusive: 50.1 µM [inhibitor, partial curve, poor fit].
With `O=C1N(c2ccccc2)c2ccccc2C12CCN(Cc1ccccc1)C2` (centres undefined) the Potency was inconclusive: 56.2 µM [inhibitor, partial curve, poor fit].
For `CC(CCc1ccccc1)NC(=O)c1ccc(Cn2ccn3nc4c(c3c2=O)CCCC4)cc1` (centres undefined), the Potency was inconclusive: 31.6 µM [inhibitor, full curve].
With `O=C(Nc1cccc(-c2nnc3n2CCCC3)c1)c1ccc(F)c(F)c1` the Potency was inconclusive: 89.1 µM [inhibitor, single point].
In the case of `COc1ccc(C(C)NC(=O)c2noc(-c3ccc4c(c3)OCO4)n2)cc1` (centres undefined), the Potency is reported as inconclusive: 8.91 µM [inhibitor, full curve, poor fit].
For `O=C(N[C@H]1CCN2C(=O)c3cc(-c4ccccc4F)ccc3NC(=O)[C@H]12)C1CCCC1`, the Potency was inconclusive: 100 µM [inhibitor, partial curve, poor fit].
For `CC(=O)N1CCCN(C(=O)c2ccc3nccn3c2)CC1`, the Potency was “inactive”.
With `CCC1=C(C(=O)OC)C(c2ccccc2)N2C(CC(=O)N3CCC(C)CC3)=CSC2=N1` (centres undefined) the Potency was inconclusive: 44.7 µM [inhibitor, partial curve, poor fit].
In the case of `COc1ccc(CCC(=O)NC2CCc3nnc(C)n3CC2)cc1OC` (centres undefined), the Potency is reported as “inactive”.
In the case of `Cc1ccc(C(=O)N2CCC(n3cc(-c4nc(-c5ccccc5)no4)nn3)CC2)s1`, the Potency is reported as active: 44.7 µM.
In the case of `O=C(NCc1ccccc1F)[C@H]1CN(Cc2ccccc2)C[C@H]1C(=O)O`, the Potency is reported as inconclusive: 56.2 µM [inhibitor, partial curve, poor fit].
With `COCCN1CCC2(CCC1=O)CN(C(=O)NC(C)C)CCN2C` (centres undefined) the Potency was “inactive”.
With `COc1ccc2nc(C[C@@H]3C[C@@H](C(C)C)[C@H](CNCc4ccccn4)C=C3C)[nH]c2c1` the Potency was active: 79.4 µM.
For `COC(=O)c1ccc2nc(C[C@@H]3C[C@@H](C(C)C)[C@H](CNC(=O)c4cnccn4)C=C3C)[nH]c2c1`, the Potency was inconclusive: 50.1 µM [inhibitor, partial curve, poor fit].
In the case of `CC(=O)N1CCN(C(=O)c2ccc3oc(-c4cccc(C)n4)nc3c2)CC1`, the Potency is reported as “inactive”.
For `COc1cccc(N2CCN(C(=O)c3ccc4c(c3)N(C)C3CCCCCN3C4=O)CC2)c1` (centres undefined), the Potency was active: 50.1 µM.
For `CCN1C(=O)C2CC3(CCN(C(=O)CC4CCCC4)CC3)CN2C1=O` (centres undefined), the Potency was inconclusive: 89.1 µM [inhibitor, single point].
For `CC1=C[C@@H](CNCc2cccnc2)[C@H](C(C)C)C[C@H]1Cc1nnc(-c2ccccc2)o1`, the Potency was active: 79.4 µM.
In the case of `Cc1ccncc1C(=O)N1CCCC(c2nnnn2C)C1` (centres undefined), the Potency is reported as inconclusive: 3.16 µM [inhibitor, full curve, poor fit].
For `O=C(NCCc1ccccc1)N1CCCC(c2nc(CCOc3ccc(F)cc3)no2)C1` (centres undefined), the Potency was inconclusive: 35.5 µM [inhibitor, partial curve, poor fit].
In the case of `O=C(O)CCC(=O)N1Cc2ccccc2CC2(CCCCN2Cc2ccccc2)C1` (centres undefined), the Potency is reported as “inactive”.
With `COc1cccc(CCC(=O)NC(C)C(=O)N2CCN(c3ccccn3)CC2)c1` (centres undefined) the Potency was inconclusive: 89.1 µM [inhibitor, single point].
With `COCCNC(=O)c1cc(-c2ccccc2F)nc2c1cnn2C` the Potency was “inactive”.
With `COc1ccc(C(=O)Nc2nc3c(s2)C[C@@H]2[C@](C)(CO)[C@H](O)CC[C@@]2(C)[C@@H]3CC(=O)N2CCOCC2)cc1` the Potency was “inactive”.
In the case of `COCCCNC(=O)CCCN1C(=O)COc2ccc(C(=O)COc3ccc(OC)cc3)cc21`, the Potency is reported as inconclusive: 8.91 µM [inhibitor, full curve, poor fit].
For `COc1ccc(-c2noc(Nc3cc(OC)cc(OC)c3)n2)cc1`, the Potency was inconclusive: 35.5 µM [inhibitor, full curve, poor fit].
In the case of `Cc1ccc(CNC(=O)N2CCC(Cc3ccc(C(=O)NC4CC4)cc3)CC2)cc1`, the Potency is reported as inconclusive: 56.2 µM [inhibitor, partial curve, poor fit].
With `CCOC(=O)C1CCN(C(=O)c2ccc3nnc(-c4ccc([S+](C)(=O)[O-])cc4)n3c2)CC1` the Potency was “inactive”.
For `N#Cc1ccc(CN2CCC[C@H]2c2nc(-c3ccnc(N4CCOCC4)c3)no2)cc1`, the Potency was inconclusive: 89.1 µM [inhibitor, partial curve].
In the case of `CC(C)c1noc(C2CCCN(C(=O)CC3CCCCC3)CCC(=O)NCC2)n1` (centres undefined), the Potency is reported as inconclusive: 39.8 µM [inhibitor, single point].
With `CO[C@H]1C(=O)N(C(C)C)[C@H]1C1CCN(C(=O)Cn2ccnc2)CC1` the Potency was “inactive”.
With `Cc1ccc(-c2cc3c(=O)n(CCNC(=O)c4ccco4)ccn3n2)c(C)c1` the Potency was inconclusive: 44.7 µM [inhibitor, partial curve, poor fit].
With `CSc1ccc(NC(=O)C2CCN(C(=O)c3nnn4c3COC(c3ccc(C)cc3)C4)CC2)cc1` (centres undefined) the Potency was “inactive”.
In the case of `CC1(c2ccccc2)N(Cc2ccc(O)cc2)C(=O)OC12CCN(Cc1ccncc1)CC2` (centres undefined), the Potency is reported as inconclusive: 79.4 µM [inhibitor, partial curve, poor fit].
For `CCn1ccc(C(=O)N2CC(C(=O)N(C)C)C3(CCOCC3)C2)n1` (centres undefined), the Potency was “inactive”.
For `CC1(CCCCN2CCOCC2)COc2ccc(C(=O)NCc3ccc(F)cc3)cc2N1` (centres undefined), the Potency was inconclusive: 56.2 µM [inhibitor, partial curve, poor fit].
With `COCCNC(=O)c1ccc2c(c1)N(C)C(CC(=O)N1CCC(C)CC1)CO2` (centres undefined) the Potency was inconclusive: 56.2 µM [inhibitor, partial curve, poor fit].
In the case of `CCCc1cc(CN(C)C(=O)C2CC(=O)N(c3ccc(C(C)C)cc3)C2)[nH]n1` (centres undefined), the Potency is reported as inconclusive: 79.4 µM [inhibitor, partial curve, poor fit].
For `CC1(C)[C@H](Cc2cc(-c3ccc(F)cc3)on2)C[C@@H]1NC1CCOCC1`, the Potency was inconclusive: 44.7 µM [inhibitor, full curve, poor fit].
With `CN(Cc1ccc(-c2ccccc2)cc1)C(=O)c1ccc(C(F)(F)F)cc1` the Potency was inconclusive: 50.1 µM [inhibitor, partial curve, poor fit].
With `COc1ccccc1-c1cc(NCc2ccncc2)c2onc(C)c2n1` the Potency was inconclusive: 112 µM [inhibitor, partial curve, poor fit].
For `CC(C)Oc1cccc(-c2nnc(CCC(=O)NC(C)c3ccccc3)c(=O)[nH]2)c1` (centres undefined), the Potency was inconclusive: 39.8 µM [inhibitor, single point].
With `CN(C)C(=O)c1csc(N2CCN(c3cccc(Cl)c3)CC2)n1` the Potency was inconclusive: 44.7 µM [inhibitor, partial curve, poor fit].
For `Cc1cc(-c2cc3c(nc2-c2ccccc2)nc(C(=O)NCCN(C)C)n3C)ccn1`, the Potency was “inactive”.
In the case of `O=C(Nc1ccc([C@@H](O)[C@H]2COCC(=O)N2Cc2ccccc2)cc1)c1ccc(F)cc1`, the Potency is reported as active: 100 µM.
With `Cc1cc(=O)n(CC(=O)Nc2ccc(C)c(C)c2)c(N2CCN(c3ccccc3)CC2)n1` the Potency was inconclusive: 11.2 µM [inhibitor, full curve, poor fit].
For `O=C1NCCCCCCN(S(=O)(=O)c2ccc3c(c2)OCCO3)[C@H]2CCCC[C@@H]12`, the Potency was inconclusive: 100 µM [inhibitor, single point].
For `Cc1noc(C)c1-c1cc(-c2cccc(N[S+](C)(=O)[O-])c2)cn2cncc12`, the Potency was inconclusive: 35.5 µM [inhibitor, partial curve, poor fit].
